Test results as given in article PMC6164334, “Structural Features of Amyloid Fibrils Formed from the Full-Length and Truncated Forms of Beta-2-Microglobulin Probed by Fluorescent Dye Thioflavin T” (International Journal of Molecular Sciences, 2018).

Target: the molecule itself
Experiment: amyloid fibril formation (negative-stain electron microscopy, far-UV CD, ThT fluorescence); purified protein at 30 μkM in Gly-HCl buffer pH 2.5, 37 °C, constant agitation (500 rpm) for 14 days

B1: ΔN6β2m, β2M truncated form that lacks the 6 N-terminal amino acids of the polypeptide chain (domain or fragment)
chain: not shown
notes: added methionine as first N-terminal amino acid; beta-2-microglobulin, human, without the 6 N-terminal amino acids of the 99-residue chain; numbers count on: the mature protein; Limits […] follow from 'lacks the 6 N-terminal amino acids' of the 99-residue protein and from the peptide MIQVYSR
binding result: binds

B2: ΔN10β2m, β2M truncated form that lacks the 10 N-terminal amino acids of the polypeptide chain (domain or fragment)
chain: not shown
notes: added methionine as first N-terminal amino acid, by the methods; the tryptic peptide MSR was not reliably detected; beta-2-microglobulin, human, without the 10 N-terminal amino acids of the 99-residue chain (Tyr10 is lost); numbers count on: the mature protein; Limits […] follow from 'lacks the 10 N-terminal amino acids' of the 99-residue protein
binding result: binds
